# Laboratory results: article PMC12136788
# Some of the results follow.
# T1: UNK ZnF1-3 (human, UniProt Q9C0B0 31-174)
# T1 sequence: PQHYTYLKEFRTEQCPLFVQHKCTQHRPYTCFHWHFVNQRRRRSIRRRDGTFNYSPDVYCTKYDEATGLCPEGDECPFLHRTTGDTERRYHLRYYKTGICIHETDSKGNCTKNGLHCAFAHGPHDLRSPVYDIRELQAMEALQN
# B1: chr7:140710375:140710376:-_ENSG00000090263_ENST00000324787|hu_mus|FALSE|FALSE (ssRNA)
# RNA: GGGAGUUCUACAGUCCGACGAUCGUUGUGAUUUGGAUACCAGUCAUAAGUCUCUUUCUUCUUGGCCAAGGGCUGCUCGCUAAACAGGCUCACCACUUUCAUGGACUUUGAGUCAGUAGACCUGGCCACUUCACCAAAGAUCCGCAACAGAGGAUUGAGCAUCA
# B2: chr1:152005216:152005217:-_ENSG00000163191_ENST00000271638|hu_hu|FALSE|FALSE (ssRNA)
# RNA: GGGAGUUCUACAGUCCGACGAUCUCAGGUCCGCUUCUGGGAAGGGACAGCCUUGAGGAAGGAGUCAUGGCAAGCCAUAGCUAGGCCACCAAUCAGAUUAAGAAAUUCUGAGAAAUCUAGCUGACCAUCACUGUUGGUGUCCAGCAACAGAGGAUUGAGCAUCA
# B3: 86998487_86999883_1873_CDS_ENSMUSG00000018548_ENSMUST00000041282|mouse|control|control (ssRNA)
# RNA: GGGAGUUCUACAGUCCGACGAUCAUGAUGAUAGUCUUCAUUCUGAAUCUUCUCCUCCUCAUCUUCAUCUUCCUUGGUCUCUCGUACAGAAGCGCAAGUAGGACCGCCUUCCAGAAGCAUGUCAGAGCAUGACCCAGCUUUCUUCAACAGAGGAUUGAGCAUCA
# B4: 57333804_57335832_82_CDS_ENSG00000174780_ENST00000510663|human|control|control (ssRNA)
# RNA: GGGAGUUCUACAGUCCGACGAUCGUUGAUCUGUAGUAUCUUAUUGACGGUCUUGAGAGCGCGCGUGAAGUCGCCGUUCUGGCCAUACCGGUUCACUUCACUCCACAGCGCAGGUACUGACACCCCCCCGCUGCCGCCGCUCGCCAACAGAGGAUUGAGCAUCA
# B5: chr11:46405157:46405158:+_ENSG00000110492_ENST00000395566|hu_hu|hu_hu_hu_mus_False|8_48 (ssRNA)
# RNA: GGGAGUUCUACAGUCCGACGAUCCCCUCCCCACUUUGGGCACUUGGUGUGGGCGUGAGAGGACAGGCGUGAUUGACAGAGCUGACAAGCAGACAGAAGGCACUGGUGGGUUAUAUCUUGGGCCUGUGAGAGGGAGGGGCUCCGCAACAGAGGAUUGAGCAUCA
# B6: chr14:39627603:39627604:-_ENSG00000182400_ENST00000330149|hu_hu|motif|central (ssRNA)
# RNA: GGGAGUUCUACAGUCCGACGAUCGAACUUCAUGAUAUCUAACUCAUCCUUGAACCUUGCAGUAUCUUUUGUAAACCUUUCGGUCAAUCCUUGUCCCACUCGAAACCCCAUGUUUUCCAGCUUAGUAAUACAUCGUCCGUUUUCCAACAGAGGAUUGAGCAUCA
# Molecular target: T1, UNK ZnF1-3
# Assay: nsRBNS (natural sequence RNA bind-n-seq); RBNS binding buffer (assumed for nsRBNS): 25 mM Tris pH 7.5, 150 mM KCl, 3 mM MgCl2, 0.01% Triton X-100, 500 ug/ml BSA, 20 U/ml SUPERase-In, 4 C; UNK is unkempt and MSI1 is Musashi-1; names of the RNAs are library labels; protein concentration not given here; high values mean tight binding
row,Binder,binding signal [enrichment R]
1,B1,0.39
2,B2,1.22
3,B3,0.94
4,B4,0.252
5,B5,2.88
6,B6,0.595
